# Assay results taken from PubChem BioAssay AID504333 (National Center for Advancing Translational Sciences (NCATS), 2011).
# Among all 360,000 compounds or so, about 16,000 (4.4%) were called active. The shares of active, inactive and inconclusive entries below differ from those in the screen. The call rests on the fitted dose curve; in most records, active means well fitted inhibition curve with a large enough effect; inconclusive means small, poorly fitted or top-dose-only effect; inactive means no such curve, though single readings can be large or run the other way. Where the call is inconclusive, the potency comes from a doubtful curve fit.
# Molecular target: Bromodomain adjacent to zinc finger domain protein 2B (Homo sapiens) (UniProt Q9UIF8)
# Assay: qHTS Assay for Inhibitors of BAZ2B; further: nearly all actives have a fitted effect of over 60% in size
# Settings: AlphaScreen BAZ2B-H3K14Ac peptide displacement; activity change, negative = inhibition: at 114 µM (top of the series)
# Procedure, shortened: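 Protein-peptide AlphaScreen: BAZ2B 50 nM, b-H3K14Ac 50 nM, 1x PBS pH 7.4 + 0.01% Tween-20. Preincubation 30 min RT; cpd 30 min RT (top 110 uM); beads 20 min RT, light-protected.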
# On the % scale 0 is the no-effect control and ±100 the full control effect; potency means the concentration at half of the fitted maximal effect; tags describe the fitted curve by direction and shape.
# Chain of UniProt Q9UIF8 (Q9UIF8 whole entry, looked up, the tested form may be a part): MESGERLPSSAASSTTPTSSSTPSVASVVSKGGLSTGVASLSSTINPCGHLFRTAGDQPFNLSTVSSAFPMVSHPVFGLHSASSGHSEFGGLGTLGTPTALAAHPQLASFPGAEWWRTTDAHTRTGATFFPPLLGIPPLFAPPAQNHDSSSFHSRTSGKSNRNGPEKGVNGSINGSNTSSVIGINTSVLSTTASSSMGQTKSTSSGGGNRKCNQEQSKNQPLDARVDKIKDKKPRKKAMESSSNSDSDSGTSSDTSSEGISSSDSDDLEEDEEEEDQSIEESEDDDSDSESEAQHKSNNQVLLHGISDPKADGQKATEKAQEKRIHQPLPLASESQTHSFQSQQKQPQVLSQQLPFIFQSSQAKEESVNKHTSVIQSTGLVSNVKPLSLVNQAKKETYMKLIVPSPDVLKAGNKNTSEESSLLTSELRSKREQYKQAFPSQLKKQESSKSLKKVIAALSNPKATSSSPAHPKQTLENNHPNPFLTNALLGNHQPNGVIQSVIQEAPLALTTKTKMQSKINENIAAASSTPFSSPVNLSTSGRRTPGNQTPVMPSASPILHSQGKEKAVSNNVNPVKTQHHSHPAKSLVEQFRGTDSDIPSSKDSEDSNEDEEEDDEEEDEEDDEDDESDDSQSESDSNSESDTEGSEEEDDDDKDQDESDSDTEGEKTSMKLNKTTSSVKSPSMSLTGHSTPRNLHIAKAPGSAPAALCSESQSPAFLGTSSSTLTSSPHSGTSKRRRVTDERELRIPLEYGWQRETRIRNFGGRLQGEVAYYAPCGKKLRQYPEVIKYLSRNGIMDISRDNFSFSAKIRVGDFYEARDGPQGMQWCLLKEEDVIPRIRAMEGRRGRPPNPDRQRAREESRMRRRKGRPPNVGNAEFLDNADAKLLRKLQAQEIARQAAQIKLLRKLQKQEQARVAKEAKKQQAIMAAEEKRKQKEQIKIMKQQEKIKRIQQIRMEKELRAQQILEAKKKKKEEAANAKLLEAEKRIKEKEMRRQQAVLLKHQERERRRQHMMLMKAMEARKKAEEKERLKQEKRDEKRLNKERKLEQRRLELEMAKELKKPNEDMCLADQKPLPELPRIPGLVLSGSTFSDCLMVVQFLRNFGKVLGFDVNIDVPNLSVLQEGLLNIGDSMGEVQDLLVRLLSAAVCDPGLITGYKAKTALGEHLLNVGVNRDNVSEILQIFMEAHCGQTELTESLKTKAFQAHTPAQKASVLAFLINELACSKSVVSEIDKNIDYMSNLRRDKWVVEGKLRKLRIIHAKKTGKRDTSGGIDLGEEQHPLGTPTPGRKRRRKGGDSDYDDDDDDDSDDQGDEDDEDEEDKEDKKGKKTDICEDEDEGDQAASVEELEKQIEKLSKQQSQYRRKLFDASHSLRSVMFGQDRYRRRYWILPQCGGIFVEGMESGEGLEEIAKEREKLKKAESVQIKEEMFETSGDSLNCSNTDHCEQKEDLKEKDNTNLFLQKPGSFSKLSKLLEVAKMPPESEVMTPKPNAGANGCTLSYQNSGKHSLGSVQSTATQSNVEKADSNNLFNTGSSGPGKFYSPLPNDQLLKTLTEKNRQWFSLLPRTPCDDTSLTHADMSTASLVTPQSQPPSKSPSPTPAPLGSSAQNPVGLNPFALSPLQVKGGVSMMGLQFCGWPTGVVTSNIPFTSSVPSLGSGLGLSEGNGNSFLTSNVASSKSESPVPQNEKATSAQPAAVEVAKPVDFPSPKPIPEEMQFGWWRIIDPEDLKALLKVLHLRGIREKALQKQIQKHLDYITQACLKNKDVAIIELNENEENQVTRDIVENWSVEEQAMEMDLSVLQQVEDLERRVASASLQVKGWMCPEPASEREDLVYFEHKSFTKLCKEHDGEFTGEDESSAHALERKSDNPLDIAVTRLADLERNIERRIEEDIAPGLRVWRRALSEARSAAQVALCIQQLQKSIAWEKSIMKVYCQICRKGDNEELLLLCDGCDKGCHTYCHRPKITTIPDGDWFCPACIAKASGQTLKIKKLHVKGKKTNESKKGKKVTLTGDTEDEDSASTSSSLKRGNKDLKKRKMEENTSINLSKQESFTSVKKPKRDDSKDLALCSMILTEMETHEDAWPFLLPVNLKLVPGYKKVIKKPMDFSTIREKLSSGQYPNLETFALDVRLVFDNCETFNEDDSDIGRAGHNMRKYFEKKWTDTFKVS
SMILES,Potency,"activity change, negative = inhibition"
S=C(N/N=C/c1ccc2c(c1)OCO2)NC1CC2CCC1C2 (configuration not stated),"inconclusive: 39.8 µM [inhibitor, partial curve]",–
CCCc1cc(-c2nc(N)ncc2-c2csc(C)n2)c(O)cc1OC,"inconclusive: 31.6 µM [inhibitor, full curve]",–
CC(=O)NCCN1C(=O)S/C(=C\c2cccs2)C1=O,"inconclusive: 79.4 µM [inhibitor, single point]",–
C=CCn1cc(C(=O)OC)c(=O)c2cc(S(=O)(=O)N(CC)CC)ccc21,"inconclusive: 50.1 µM [inhibitor, partial curve]",–
NC1=NC(=O)/C(=C\c2ccco2)S1,active: 79.4 µM,–
O=S1(=O)N=C(Nc2nncs2)c2ccccc21,active: 56.2 µM,–
C=CCC1(/C=N/O)CCOC(C)(C)C1 (configuration not stated),–,inactive: -3.66%
COc1ccc(CNC(=O)c2ccc(Cn3c(=O)c4cccn4c4cccnc43)cc2)c(OC)c1,–,inactive: -12.7%
CC1=C(C#N)C(=O)NC(=O)/C1=C\c1ccc(-c2cc(C)c(C)cc2[N+](=O)[O-])o1,active: 44.7 µM,–
COC(=O)CSc1cc(SCC(=O)OC)c(C#N)c(SCC(=O)OC)c1,"inconclusive: 89.1 µM [inhibitor, single point]",–
O/C(=C\Sc1nnc(Cc2ccccc2)o1)c1ccc(F)cc1,"inconclusive: 11.2 µM [inhibitor, single point]",–
CC(=O)c1c(C)[nH]c(C(=O)COc2cc(C)ccc2C(C)C)c1C,"inconclusive: 12.6 µM [inhibitor, full curve, poor fit]",–
COc1ccc(OC)c(-n2cnc3cc(C(=O)NCCCN4CCOCC4)ccc32)c1,"inconclusive: 89.1 µM [inhibitor, single point]",–
COc1ccc(Nc2ncc(C(=O)Nc3cccc(Cl)c3)c3ccccc23)cc1,active: 79.4 µM,–
CC(C)(C)c1ccc(/C=C/C(=O)NCCCn2ccnc2)cc1,"inconclusive: 70.8 µM [inhibitor, single point]",–
CCc1ccc(OCCCCN(C)Cc2ccccc2)cc1,"inconclusive: 89.1 µM [inhibitor, single point]",–
CN1CC2(C(=O)c3ccccc3)CN(C)CC(C(=O)c3ccccc3)(C1)C2,"inconclusive: 39.8 µM [inhibitor, single point]",–
COc1ccc(NC(=O)c2ccccc2F)cc1Cl,active: 56.2 µM,–
CCCOc1ccc(-c2nc(-c3ccc([N+](=O)[O-])cc3)cs2)cc1,"inconclusive: 7.94 µM [inhibitor, full curve, poor fit]",–
O=C(CCCN1C(=O)/C(=C\c2ccco2)SC1=S)Nc1cccc2ccccc12,active: 44.7 µM,–
Oc1ccccc1C=NCCN=Cc1ccccc1O,–,inactive: -31.9%
Cc1nc2c3cccnc3nn2c(C)c1CCC(=O)NCc1ccccc1,–,inactive: -7.65%
CCC(=O)N1c2ccccc2CC1C(=O)NCCCN1CCN(c2ccc(OC)cc2)CC1 (configuration not stated),"inconclusive: 44.7 µM [inhibitor, partial curve]",–
COc1cc(N/N=C(\C)c2ccc(N)cc2)nc(-c2ccccc2)n1,active: 31.6 µM,–

SMILES,Potency,"activity change, negative = inhibition"
O=S(=O)(Nc1ccc(O)c(Sc2nc3ccccc3s2)c1)c1cc(Cl)ccc1Cl,"inconclusive: 39.8 µM [inhibitor, partial curve]",–
O=C(N/N=C/c1ccc(N2CCOCC2)o1)c1ccccc1[N+](=O)[O-],–,inactive: -0.983%
O=C(Cn1c(-c2cccs2)cc2cc(F)ccc21)NCCc1ccc(Cl)cc1,–,inactive: -10.6%
COc1ccc(C2=CC(c3cccc(OC)c3)n3nnnc3N2)cc1 (configuration not stated),"inconclusive: 89.1 µM [inhibitor, single point]",–
CCCCOc1ccc(CNC(=O)c2cnc3sc(N4CCCC4)nn3c2=O)cc1,–,inactive: -8.9%
Clc1ccc(-c2nnnn2-c2ccc(Cl)c(Cl)c2)cc1Cl,"inconclusive: 7.94 µM [inhibitor, single point]",–
COc1ccc(NC(=O)CN(C)C(=O)c2ccc3[nH]c4c(c3c2)CC(C)CC4)cc1 (configuration not stated),"inconclusive: 39.8 µM [inhibitor, full curve]",–
Cc1ccc2c(c1)C(c1ccccc1)N(C(=O)c1ccc(Br)cc1)CC(=O)N2 (configuration not stated),"inconclusive: 70.8 µM [inhibitor, single point]",–
Cc1ccc(SCc2c(C(=O)N/N=C/c3cccnc3)nnn2-c2nonc2N)cc1,"inconclusive: 79.4 µM [inhibitor, single point]",–
O=c1ccc(-c2ccccc2)nn1Cc1c(F)cccc1Cl,–,inactive: 11.6%
O=C(Nc1ccccc1)C1CC(=O)N(C2CCCCC2)C1 (configuration not stated),–,inactive: -8.43%
C#CCOCCOCCOCCNc1nc(N2CCN(C(=O)[C@H](Cc3cc4ccccc4[nH]3)n3cc(C(N)CC(C)C)nn3)CC2)nc(N2CCN(C(=O)[C@H](CCC(=O)O)n3cc(C(N)[C@H](C)CC)nn3)CC2)n1 (some centres not stated),active: 44.7 µM,–
O=C(CN1CCCCC1)NNC(=O)c1ccc([N+](=O)[O-])cc1,"inconclusive: 70.8 µM [inhibitor, single point]",–
O=C(Cn1c(=O)ccc2cc(S(=O)(=O)N3CCCC3)ccc21)Nc1ccccc1,–,inactive: -1.76%
Cc1cc(C)c(CSc2ncc(-c3ccc([N+](=O)[O-])cc3)[nH]2)c(C)c1,active: 10 µM,–
Cc1nc(-c2cn[nH]c2)c2cc(C)oc2n1,–,inactive: -3.19%
CN(C)c1ccc(C(=S)Nc2ccccc2)cc1,"inconclusive: 20 µM [inhibitor, full curve]",–
COc1cccc(-c2nc(CS(=O)(=O)CC(=O)N3CCN(c4ccccc4)CC3)c(C)o2)c1,"inconclusive: 79.4 µM [inhibitor, partial curve]",–
CCSC1=N/C(=C\C=C2/Oc3ccccc3N2CC)C(=O)S1,active: 31.6 µM,–
Cc1nnc(SCC(=O)N(C)C2CCS(=O)(=O)C2)n1Cc1ccccc1 (configuration not stated),–,inactive: -16.3%
CN1C(C(=O)Nc2cccc(O)c2)=CC(c2cccs2)=NS1(=O)=O,"inconclusive: 79.4 µM [inhibitor, single point]",–
COc1ccc(OCCC(=O)NC2=NCCS2)cc1,"inconclusive: 79.4 µM [inhibitor, partial curve]",–
Cc1cccc(NC(=O)c2ccc(F)c(S(=O)(=O)NCc3ccco3)c2)c1,"inconclusive: 50.1 µM [inhibitor, partial curve]",–
